The values below come from paper PMC4336329 (PLoS ONE, 2015).

Structures are written as SMILES. The whole screen tested about 310,000 compounds, of which about 2,200 (0.71%) showed an effect of 50% or more. The effect is printed as a negative number. The list shows a part of the results.

Chain of human ether-à-go-go-related gene (hERG) potassium channel (Q12809 whole entry, looked up): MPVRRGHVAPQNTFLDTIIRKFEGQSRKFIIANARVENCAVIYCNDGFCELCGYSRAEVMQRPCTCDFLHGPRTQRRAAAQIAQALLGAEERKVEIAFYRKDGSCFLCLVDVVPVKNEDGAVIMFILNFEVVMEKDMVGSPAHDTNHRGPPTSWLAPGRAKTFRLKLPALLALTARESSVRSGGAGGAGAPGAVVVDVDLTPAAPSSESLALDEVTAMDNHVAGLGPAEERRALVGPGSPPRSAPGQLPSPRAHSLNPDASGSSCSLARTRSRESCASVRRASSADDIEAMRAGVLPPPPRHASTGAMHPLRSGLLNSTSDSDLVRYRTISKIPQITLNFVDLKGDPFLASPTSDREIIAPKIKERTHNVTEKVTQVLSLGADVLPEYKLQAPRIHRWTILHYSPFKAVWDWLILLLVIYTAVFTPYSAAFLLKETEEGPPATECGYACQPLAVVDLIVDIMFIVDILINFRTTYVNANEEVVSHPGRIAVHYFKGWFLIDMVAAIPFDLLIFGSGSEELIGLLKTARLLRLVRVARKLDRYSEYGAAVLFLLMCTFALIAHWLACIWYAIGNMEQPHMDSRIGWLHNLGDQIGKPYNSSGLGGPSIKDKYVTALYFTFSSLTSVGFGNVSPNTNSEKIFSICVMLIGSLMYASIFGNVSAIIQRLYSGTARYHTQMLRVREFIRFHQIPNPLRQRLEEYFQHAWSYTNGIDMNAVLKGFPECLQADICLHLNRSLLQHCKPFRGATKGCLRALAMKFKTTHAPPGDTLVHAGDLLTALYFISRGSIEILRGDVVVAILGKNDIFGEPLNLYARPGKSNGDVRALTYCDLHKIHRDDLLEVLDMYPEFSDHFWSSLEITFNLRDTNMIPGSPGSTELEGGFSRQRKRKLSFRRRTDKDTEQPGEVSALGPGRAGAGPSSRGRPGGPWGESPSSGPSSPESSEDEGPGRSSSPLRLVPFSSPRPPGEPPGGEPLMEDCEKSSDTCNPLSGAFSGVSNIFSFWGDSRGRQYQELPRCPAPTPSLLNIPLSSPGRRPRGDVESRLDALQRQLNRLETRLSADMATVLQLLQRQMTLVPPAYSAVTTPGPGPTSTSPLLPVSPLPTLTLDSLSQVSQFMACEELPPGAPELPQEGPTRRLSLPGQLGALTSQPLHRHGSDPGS

This test has as its target human ether-à-go-go-related gene (hERG) potassium channel (human, UniProt Q12809). Put plainly: primary screen, population patch clamp on CHO cells stably expressing hERG.
As for `O=[N+]([O-])c1ccc(C2=NN(CCO)C(=Nc3ccc(OC(F)(F)F)cc3)SC2)cc1`, the “hERG current change (%, negative = inhibition) at 1uM” value was 18.2%. On to `CCN(CC)S(=O)(=O)c1cccc(C(=O)Nc2nc3cc4c(cc3s2)OCCO4)c1`, for which the “hERG current change (%, negative = inhibition) at 1uM” value was determined as 10.8%. In the case of `NC(=O)COC(=O)c1cc(=O)[nH]c2ccc(S(=O)(=O)Nc3ccc(F)cc3)cc12`, the “hERG current change (%, negative = inhibition) at 1uM” value came to 8.84%. For `Cl.O=C(Oc1cccnc1)c1ccc(Cl)cc1`, the “hERG current change (%, negative = inhibition) at 1uM” value was -19.7%. In the case of `COc1cccc(-c2ncc3ccccc3c2COC(=O)CCCC(=O)O)c1` it was 2.76%. As to `NC(=S)Nc1ccccc1Br`, the “hERG current change (%, negative = inhibition) at 1uM” value is recorded as -9.14%.

Take `COc1ccc(N2CCN(c3ccc(N4C(=O)CC(C)C4=O)cc3[N+](=O)[O-])CC2)cc1` (stereo not drawn): the “hERG current change (%, negative = inhibition) at 1uM” value came to 15%. On to `Cc1onc(-c2ccccc2Cl)c1C(O)c1ccc(F)cc1` (stereo not drawn), for which the “hERG current change (%, negative = inhibition) at 1uM” value amounted to 2.22%. The result for `COc1ccc(S(=O)(=O)N2CCOCC2)c(C)c1C` reads 11.5%; that for `COc1ccccc1C(=O)Nc1ccc(CN2CCCCC2)cc1`, 9.16%; that for `CC(OC(=O)Cn1[nH]c(=O)c2ccccc2c1=O)C(=O)Nc1ccc(Cl)cn1` (stereo not drawn), 3.15%. As to `CCCCn1ccnc1C(=O)c1ccc(S(=O)(=O)N(CCOC)CCOC)cc1`, the “hERG current change (%, negative = inhibition) at 1uM” value came out at 10.7%.

Take `CCOc1cc(NC(=O)C2CCCCC2)c(OCC)cc1NC(=O)c1ccco1`: the “hERG current change (%, negative = inhibition) at 1uM” value is reported as 9.59%. As to `CC1CCCN(C(c2cccs2)c2nnnn2Cc2ccccc2)C1.Cl` (stereo not drawn), the “hERG current change (%, negative = inhibition) at 1uM” value was -0.954%.

In the case of `COc1ccccc1C1CC(=O)Nc2cc(C)c(C)cc21` (stereo not drawn), the “hERG current change (%, negative = inhibition) at 1uM” value was 12.4%. Turning to `CCOC(=O)c1coc(CNC(=O)c2c(C)oc3c2CCCC3)c1`, the “hERG current change (%, negative = inhibition) at 1uM” value is 0.0394%. On to `Cc1ccc(CN2CCN(CC(=O)N/N=C/c3c[nH]c4ccccc34)CC2)cc1`, for which the “hERG current change (%, negative = inhibition) at 1uM” value was -5.15%. As for `CCOC(=O)C1CCN(C2CCN(C(=O)c3oc4c(F)cccc4c3C)CC2)CC1`, the “hERG current change (%, negative = inhibition) at 1uM” value was -67%. Consider `COc1ccc(CNC(=O)C2CCN(S(=O)(=O)c3ccc(Br)s3)CC2)cc1`, for which the “hERG current change (%, negative = inhibition) at 1uM” value is recorded as 3.86%. As for `COc1ccc(NC(=O)C(NC(=O)CC2NC(=O)NC2=O)c2ccccc2)cc1` (stereo not drawn), the “hERG current change (%, negative = inhibition) at 1uM” value came to 0.021%. For the molecule `O=C1C(=O)N(Cc2cccc([N+](=O)[O-])c2)c2ccccc21`, the “hERG current change (%, negative = inhibition) at 1uM” value is reported as 0.382%. `NNC(=O)c1ccc(COc2cccc3ccccc23)o1`: the “hERG current change (%, negative = inhibition) at 1uM” value is reported as 12.6%. In the case of `COC(=O)c1[nH]c2ccccc2c1NC(=O)CN1CCN(c2cccc(OC)c2)C(C)C1` (stereo not drawn), the “hERG current change (%, negative = inhibition) at 1uM” value was found to be 5.4%. On to `O=C(CBr)Nc1c2c(nn1-c1ccccc1)CSC2`, for which the “hERG current change (%, negative = inhibition) at 1uM” value was found to be 14.2%. On to `CCOc1cc(NC(=S)NCCOC)c(OCC)cc1NC(=O)c1ccco1`, for which the “hERG current change (%, negative = inhibition) at 1uM” value was found to be 10.8%. In the case of `CCCn1c(N)c(C(=O)CSc2nnc(Cc3cccs3)n2C2CC2)c(=O)n(C)c1=O` it was 6.27%; in that of `Cc1ccc(C(CC(=O)N2CCCCC2)c2ccccc2)c(O)c1C` (stereo not drawn), -1.66%. The result for `Cc1ccccc1C1C2=C(Nc3[nH]n(-c4ccccc4)c(=O)c31)c1ccccc1C2=O` (stereo not drawn) reads 1.91%; that for `CCc1nnc(N/N=C/c2c(F)cccc2Cl)n1N`, 7.27%; that for `CCc1ccc(/C=C2\Oc3c(ccc(O)c3CN3CCN(C)CC3)C2=O)cc1`, 3.67%. For `O=S(=O)(c1cccs1)N1CCN(c2ccccn2)CC1`, the “hERG current change (%, negative = inhibition) at 1uM” value came out at 13.6%.

`O=C(COC(=O)c1cccnc1)c1ccc(Cl)c(Cl)c1`: the “hERG current change (%, negative = inhibition) at 1uM” value came to 12.8%. Turning to `O=C1NC(=S)NC(=O)C1=Cc1ccc(Br)s1`, the “hERG current change (%, negative = inhibition) at 1uM” value turned out to be 17.6%. Turning to `COc1ccc(OC)c(NC(=O)C2CCCC2)c1`, the “hERG current change (%, negative = inhibition) at 1uM” value is reported as 10.1%. Take `CC1CC(C)CN(S(=O)(=O)c2cc3c(cc2Cl)NC(=O)CO3)C1` (stereo not drawn): the “hERG current change (%, negative = inhibition) at 1uM” value is reported as -1.39%. On to `COc1ccc2nc(NC(=O)c3cccc(OCc4c(C)noc4C)c3)sc2c1`, for which the “hERG current change (%, negative = inhibition) at 1uM” value was 1.83%.

For the molecule `O=C(CCN1CCN(c2ccccc2)CC1)NNC(=S)Nc1ccccc1`, the “hERG current change (%, negative = inhibition) at 1uM” value is recorded as -19%. For the molecule `COc1ccc(C(C(=O)NC(C)(C)C)N(Cc2cccnc2)C(=O)CCC(=O)Nc2cc(C)on2)cc1` (stereo not drawn), the “hERG current change (%, negative = inhibition) at 1uM” value stood at 6.74%. As to `CCC(=O)N/C(N)=N/c1nc2ccccc2o1`, the “hERG current change (%, negative = inhibition) at 1uM” value stood at 11.3%. As for `CCCn1cc(CN2CCCC(C(=O)c3ccc4c(c3)OCO4)C2)c(C)n1` (stereo not drawn), the “hERG current change (%, negative = inhibition) at 1uM” value is listed as -10.2%. With `CC(=O)N1CCc2ccc(NC(=O)c3c(-c4c(Cl)cccc4Cl)noc3C)cc21`, the “hERG current change (%, negative = inhibition) at 1uM” value is 13.3%.

Turning to `O=C(CCc1ccccc1)Nc1c(F)cccc1F`, the “hERG current change (%, negative = inhibition) at 1uM” value was found to be 0.491%.

For `Cc1ccc(OCCCC(=O)Nc2ccc(S(=O)(=O)N3CCOCC3)cc2)cc1`, the “hERG current change (%, negative = inhibition) at 1uM” value is recorded as 5.94%. Regarding `O=S(=O)(Nc1cccc(CCc2ccccn2)c1)c1ccc(Cl)cc1`, the “hERG current change (%, negative = inhibition) at 1uM” value is 12.6%.

`CSc1nnc(SCC2=NNC(=O)SC2)s1`: the “hERG current change (%, negative = inhibition) at 1uM” value was found to be 8.51%.

On to `COc1ccccc1CNC(=O)c1cccc(C)c1[N+](=O)[O-]`, for which the “hERG current change (%, negative = inhibition) at 1uM” value came out at 2.87%. With `CCCN1CC=C2C(C#N)=C(N)C(C#N)(C#N)C(c3cccc(OC)c3OC)C2C1` (stereo not drawn), the “hERG current change (%, negative = inhibition) at 1uM” value was 5.78%. Turning to `CN1CCN(C(=O)c2ccc(S(=O)(=O)c3ccc(Br)cc3)cc2)CC1`, the “hERG current change (%, negative = inhibition) at 1uM” value is listed as 1.1%.
